According to PMC4336329 (PLoS ONE, 2015):
Hit rate of the full screen: of about 310,000 compounds, about 14,000 (4.5%) showed an effect of 50% or more. Effects have a minus sign here. Some of the results follow.

These molecules were tested against human ether-à-go-go-related gene (hERG) potassium channel (human, UniProt Q12809) (assay: primary screen, population patch clamp on CHO cells stably expressing hERG).
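Also: peak tail current of the secondary pulse compared with the same well before compound.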

Sequence of human ether-à-go-go-related gene (hERG) potassium channel (Q12809 whole entry, looked up): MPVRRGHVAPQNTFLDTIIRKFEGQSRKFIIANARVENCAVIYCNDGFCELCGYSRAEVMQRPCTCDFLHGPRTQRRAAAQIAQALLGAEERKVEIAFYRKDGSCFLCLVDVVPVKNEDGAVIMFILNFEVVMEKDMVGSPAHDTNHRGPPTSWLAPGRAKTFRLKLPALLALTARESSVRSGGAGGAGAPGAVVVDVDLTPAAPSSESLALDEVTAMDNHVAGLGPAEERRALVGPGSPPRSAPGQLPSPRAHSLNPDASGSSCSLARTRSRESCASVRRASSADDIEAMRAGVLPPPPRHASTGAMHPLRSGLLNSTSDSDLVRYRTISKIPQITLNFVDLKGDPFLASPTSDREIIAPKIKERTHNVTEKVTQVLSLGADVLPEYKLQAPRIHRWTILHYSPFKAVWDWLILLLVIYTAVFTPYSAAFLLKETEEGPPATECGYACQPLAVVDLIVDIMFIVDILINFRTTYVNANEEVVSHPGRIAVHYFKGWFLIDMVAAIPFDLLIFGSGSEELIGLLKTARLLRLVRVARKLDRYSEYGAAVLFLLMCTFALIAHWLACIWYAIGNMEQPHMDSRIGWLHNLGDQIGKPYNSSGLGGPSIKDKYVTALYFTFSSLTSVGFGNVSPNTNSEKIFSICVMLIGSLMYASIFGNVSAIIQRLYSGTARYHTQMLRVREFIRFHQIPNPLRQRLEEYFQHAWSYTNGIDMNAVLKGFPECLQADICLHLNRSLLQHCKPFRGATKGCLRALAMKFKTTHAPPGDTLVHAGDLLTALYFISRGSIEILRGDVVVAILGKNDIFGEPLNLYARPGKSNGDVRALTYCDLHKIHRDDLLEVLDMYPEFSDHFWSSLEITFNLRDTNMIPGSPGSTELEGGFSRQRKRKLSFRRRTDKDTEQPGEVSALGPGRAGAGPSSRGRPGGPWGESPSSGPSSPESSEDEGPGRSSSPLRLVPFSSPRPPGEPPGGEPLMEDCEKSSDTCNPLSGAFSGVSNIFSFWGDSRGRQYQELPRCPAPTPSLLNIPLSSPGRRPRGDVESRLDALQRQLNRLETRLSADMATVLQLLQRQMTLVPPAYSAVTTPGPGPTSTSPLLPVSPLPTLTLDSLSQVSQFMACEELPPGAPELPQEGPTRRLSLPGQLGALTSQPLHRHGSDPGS

With `CCOc1ccc(Br)cc1S(=O)(=O)Nc1ncn[nH]1` as the molecule, how does the “hERG current change (%, negative = inhibition) at 10uM” value read?
Its value is 26%.

Which “hERG current change (%, negative = inhibition) at 10uM” value does the source give for `Cc1ccc(S(=O)(=O)N2CCCC(CCC(=O)NCc3ccccc3F)C2)s1` (stereo not drawn) here?
Its value is -50.7%.

`COc1ccccc1NC(=O)c1nn(-c2ccc(OC(F)(F)F)cc2)ccc1=O` was tested. Which “hERG current change (%, negative = inhibition) at 10uM” value did it give?
The value was 11.5%.

For `COc1cccc(NC(=O)N[C@@H](Cc2ccccc2)C(=O)O)c1`, which “hERG current change (%, negative = inhibition) at 10uM” value is on record?
The value was 14%.

Which “hERG current change (%, negative = inhibition) at 10uM” value does the source give for `Cc1ccc(C(=O)NC(=S)Nc2cc(-c3nc4ccccc4s3)ccc2C)cc1` here?
The value was 12.7%.

`Cc1cccc(NC(=O)c2nc[nH]c2C(=O)N2CCN(C(=O)OC(C)(C)C)CC2)c1` was tested. Which “hERG current change (%, negative = inhibition) at 10uM” value did it give?
The value was -19.3%.

`O=C(O)C(Cc1c[nH]c2ccccc12)NS(=O)(=O)c1ccc(Cl)c(C(F)(F)F)c1` (stereo not drawn) was tested. Which “hERG current change (%, negative = inhibition) at 10uM” value did it give?
The value was 10%.

How did the “hERG current change (%, negative = inhibition) at 10uM” value turn out when `Cc1csc(Cn2c(CN(C)C)nc3ccccc3c2=O)n1` was run?
Its value is -12.3%.

How did the “hERG current change (%, negative = inhibition) at 10uM” value turn out when `Cc1ccc(-n2c(C)csc2=N)cc1` was run?
The value was 5.7%.

`COc1ccc(S(=O)(=O)N2CCOCC2)cc1NC(=O)CN1CCC(Cc2ccccc2)CC1` was tested. Which “hERG current change (%, negative = inhibition) at 10uM” value did it give?
Its value is -3.87%.

With `CN(C)S(=O)(=O)c1ccc(C(=O)NCc2ccccn2)cc1` as the molecule, how does the “hERG current change (%, negative = inhibition) at 10uM” value read?
The value was 12%.

How did the “hERG current change (%, negative = inhibition) at 10uM” value turn out when `CCOC(=O)N1CCN(C(=O)Cc2ccc(-n3c(=O)[nH]c4ccccc4c3=O)cc2)CC1` was run?
Its value is -5.48%.

Which “hERG current change (%, negative = inhibition) at 10uM” value does the source give for `O=C(c1cc(Br)ccc1O)N1CCN(S(=O)(=O)Cc2ccccc2)CC1` here?
Its value is -8.72%.

For `Cc1noc(C)c1C(=O)Nc1sc2c(c1C(N)=O)CCC2`, which “hERG current change (%, negative = inhibition) at 10uM” value is on record?
The value was 1.7%.

Which “hERG current change (%, negative = inhibition) at 10uM” value does the source give for `Cc1cccc(CS(=O)(=O)c2ncc(CO)n2C)c1` here?
Its value is 16%.

With `O=C(CSc1ccccn1)Nc1ccc2c(c1)C(=O)c1ccccc1C2=O` as the molecule, how does the “hERG current change (%, negative = inhibition) at 10uM” value read?
The value was 18.5%.

With `CCNC(=S)NNc1nnc(-c2ccccc2)c(-c2ccccc2)n1` as the molecule, how does the “hERG current change (%, negative = inhibition) at 10uM” value read?
The value was 4.26%.

`Cn1c(SCc2ccc(C#N)cc2Cl)nc2ccccc21` was tested. Which “hERG current change (%, negative = inhibition) at 10uM” value did it give?
Its value is -36.5%.

With `O=C(COC(=O)c1ccc([N+](=O)[O-])cc1Cl)Nc1cccnc1Cl` as the molecule, how does the “hERG current change (%, negative = inhibition) at 10uM” value read?
The value was 1.15%.

How did the “hERG current change (%, negative = inhibition) at 10uM” value turn out when `CCCCCN1C(=O)/C(=C/c2c(N3CCc4ccccc4C3)nc3ccccn3c2=O)SC1=S` was run?
The value was 18.4%.

`CC(=O)c1ccc(NC(=O)COc2ccccc2C(=O)Nc2ccc(C)cn2)cc1` was tested. Which “hERG current change (%, negative = inhibition) at 10uM” value did it give?
Its value is 9.59%.

Which “hERG current change (%, negative = inhibition) at 10uM” value does the source give for `Cc1ccc(NC(=O)CCC(=O)NNS(=O)(=O)c2ccccc2)cc1C` here?
Its value is -9.66%.

`CC(C)(C)c1nn(-c2ccccc2)c2[nH]c(=O)c(CNc3ccc4c(c3)OCCO4)cc12` was tested. Which “hERG current change (%, negative = inhibition) at 10uM” value did it give?
The value was -4.99%.

How did the “hERG current change (%, negative = inhibition) at 10uM” value turn out when `COc1ccc(-c2coc3cc(O)ccc3c2=O)cc1O` was run?
The value was -1.36%.
